In all, about 52,000 compounds went through this assay and about 4,300 (8.3%) were called active. Rule as the data show it: active = survival mostly below about 52% (no sharp cut-off); inactive = mostly above about 56%. Some of the results follow.
Tested on: DeltatarO mutant
Assay: growth inhibition of S. aureus wild type versus tarO mutant, primary screen, teichoic acid synthesis inhibitors, RN4220, OD600 (AID 463173)
Details: OD600, 18 h, stronger effect = lower value, screened at 18.75 µg/mL (by protocol)

Structure (SMILES)	survival
COc1cccc(NC(=O)Cn2c(=O)n(CCCCC(=O)NCc3ccccc3Cl)c(=O)c3ccccc32)c1	inactive: 83%
CC1CCN(C(=O)CSc2nc3ccccc3nc2Cc2ccccc2)CC1	inactive: 99%
CCOc1ccccc1N1CCN(S(=O)(=O)c2ccc(C3CCCCC3)cc2)CC1	inactive: 50%
CCC(=O)N1CCc2cc(S(=O)(=O)Nc3cc(C)ccc3OC)ccc21	inactive: 84%
COc1ccc(-c2csc3ncnc(Nc4cc(OC)cc(OC)c4)c23)cc1	inactive: 106%
CC(C)C(=O)Nc1ccc2nc(SCC(=O)N3CCc4ccccc43)sc2c1	inactive: 97%
Cc1ccc(-n2c(SCC(=O)c3ccccc3)nc3c([nH]c4ccccc43)c2=O)cc1	active: -5%
COc1ccccc1CC(=O)Nc1ccc2nc(Nc3cccc(Cl)c3)cc(C)c2c1	inactive: 144%
CCOc1ccc(NC(=O)CCc2c(C)nc3cc(-c4ccc(Cl)cc4)nn3c2C)cc1	active: 35%
COC(=O)CNC(=O)c1cc2sccc2n1Cc1ccccc1	inactive: 97%
CCCOc1ccc(NC(=O)C(=O)NCCCN2CCOCC2)cc1	inactive: 86%
Cc1ccc(CNC(=O)CS(=O)(=O)Cc2nc(-c3ccccc3C)oc2C)cc1	inactive: 102%
CCCCCn1c(=O)[nH]c2cc(C(=O)NCc3ccccc3)ccc2c1=O	inactive: 80%
CCN(CC)S(=O)(=O)c1ccc2c(c1)N(CC(=O)NCCCN1CCN(c3cc(Cl)ccc3C)CC1)C(=O)CO2	inactive: 53%
Cc1cccc(Cn2c(SCc3ccc(C(=O)NC4CCCC4)cc3)nc3ccncc32)c1	active: 54%
COc1ccc(CNC(=O)Cc2c(C)c3c(cc(C)c4c(C)c(C)oc43)oc2=O)cc1OC	inactive: 84%
Cc1ccc(NC(=O)c2sc(-n3nc(C)c(Cc4ccc5c(c4)OCO5)c3C)nc2C)cc1Cl	inactive: 105%
Cc1cccc(-c2noc(CNC(=O)c3ccccc3Br)n2)c1	inactive: 72%
CCCn1cnc2cc(NCc3ccc(OC)cc3OC)ccc21	inactive: 64%
Cc1cc(=O)oc2cc(OCC(=O)Nc3ccc(O)c(C(=O)O)c3)ccc12	inactive: 71%
CCOc1ccc(CC(=O)N2CCc3cc(OC)c(OC)cc3C2COc2ccc3c(C)cc(=O)oc3c2)cc1 (centres undefined)	inactive: 55%
CC(C)CC(=O)Nc1ccccc1-c1nnn(CC(=O)N2CCc3ccccc3C2)n1	inactive: 92%
COc1ccc2c(c1)c1c(c(=O)n(Cc3ccccc3)c(=O)n1CC(=O)NCc1ccccc1)n2C	inactive: 91%

Structure (SMILES)	survival
Cc1cc(C)cc(NC(=O)N2CCN(c3cc(-c4noc(C)n4)ccc3C)CC2)c1	inactive: 87%
CCOCCCNC(=O)c1ccc(-n2c(-c3ccccc3)cc3c2CCCCC3)cc1	inactive: 49%
CN(C)CCN(Cc1ccco1)C(=O)c1oc2ccccc2c1NC(=O)c1cccc(F)c1	inactive: 117%
CCC(=O)N1CCc2cc(Br)cc(S(=O)(=O)CCC(=O)Nc3cccc(C)c3C)c21	inactive: 144%
COc1ccc(CNCc2c(C(=O)O)n(Cc3ccc(F)cc3)c3cc(C)ccc23)cc1OC	inactive: 82%
Cc1cccc(NC(=O)C2CCN(c3cnccn3)CC2)c1	inactive: 54%
COc1ccc(Cn2c(=O)c3ccccc3n3c(-c4cccc(OC)c4OC)nnc23)cc1	inactive: 93%
COc1ccc(CC(=O)Nc2ccc3nc(N4CCCCC4)cc(C)c3c2)cc1	active: 51%
CC1CCN(S(=O)(=O)c2ccc3c(c2)oc(=O)n3CC(=O)O)CC1	active: 0%
CCOC(=O)c1c(NC(C)=O)c2c3c(sc2n1Cc1nc(-c2ccccc2Cl)oc1C)CCCC3	inactive: 105%
Cc1ccc(CNC(=O)c2cc3c(s2)-c2c(C)cccc2OC3)cc1	inactive: 68%
CCc1cc(=O)[nH]c(SCc2nc(-c3ccccc3)no2)n1	inactive: 95%
Cc1cccc(CC(=O)NCc2nc3cccnc3n2Cc2ccc(F)cc2)c1	inactive: 72%
CCCOc1ccc(C(=O)Nc2ccc(NC(=O)c3ccccc3)c(C)c2)cc1	inactive: 82%
Cc1cccc(C(=O)NC2=NC(c3ccc(Cl)cc3)CC(=O)N2)c1 (centres undefined)	inactive: 88%
CCNC(=O)c1c(NC(=O)c2nc(S(=O)(=O)CC)ncc2Cl)sc2c1CCCC2	active: 34%
O=C(CSc1nc(=O)[nH]c2c1CCCC2)NCc1ccc(F)cc1	inactive: 69%
COCCn1c(C)cc(O)c(C(c2ccc(F)cc2)N2CCN(c3ccccc3)CC2)c1=O (centres undefined)	active: 47%
CCOC(=O)c1c(C)c(-c2ccccc2)n(CC(=O)NCCc2cccc(C)c2)c1C	inactive: 100%
COc1ccc(CC(=O)NCCS(=O)(=O)N2CCN(c3ccc(F)cc3)CC2)cc1OC	inactive: 70%
N#Cc1ccccc1Cn1cnc2nc3c(cc2c1=O)CCCC3	inactive: 101%
CCc1nc(C)cn1S(=O)(=O)c1ccc(Cl)c(Cl)c1OC	inactive: 71%
COc1ccc(CCNC(=O)c2cn(C)c3ccc(S(=O)(=O)N(C)C)cc3c2=O)cc1OC	inactive: 84%

Structure (SMILES)	survival
CC1CCCN(S(=O)(=O)c2cc3c4c(c2)CC(=O)N4CCC3)C1 (centres undefined)	inactive: 91%
CCN(C(=O)c1cn(CC(C)C)c(=O)c2cc(OC)c(OC)cc12)c1cc(OC)ccc1OC	inactive: 55%
CC(C)c1ccc(NC(=O)Cn2nnc(C(=O)NCc3ccc(Cl)cc3)c2N)cc1	inactive: 102%
CCN(CC)S(=O)(=O)c1ccc(-c2nnc(SCC(=O)Nc3nc4ccccc4s3)o2)cc1	inactive: 66%
COc1ccc2c(c1)sc1ncc(C(=O)NCc3cccc(C)c3)c(=O)n12	inactive: 59%
CCc1ccc(C(=O)c2cn(CC(=O)Nc3cc(F)ccc3F)c3nc(C)ccc3c2=O)cc1	inactive: 116%
CCOC(=O)C1CCC(CN(Cc2ccc(OC)cc2)S(=O)(=O)c2ccc(F)c(C(=O)Nc3c(C)cccc3C)c2)CC1 (centres undefined)	inactive: 83%
O=C(Nc1cccc(Cl)c1)C1CCCN(c2ncnc3c2nc2n3CCCCC2)C1 (centres undefined)	active: 17%
O=C(Cn1cnc2c(nc3n2CCCCC3)c1=O)Nc1ccc(F)c(Cl)c1	inactive: 102%
CS(=O)(=O)Nc1ccccc1C(=O)OCc1cc(=O)n2nc(C3CCCCC3)sc2n1	inactive: 70%
Cc1cc(F)ccc1NC(=O)CS(=O)(=O)c1cccc2nsnc12	inactive: 77%
Cc1ccccc1Nc1c(-c2ccccc2)nc2cccc(C)n12	inactive: 98%
CSc1ccc(CCNC(=O)c2cc3cc(S(=O)(=O)N4CCCCC4)ccc3n2C)cc1	inactive: 66%
COc1ccc(CNc2nc(SCc3ccccc3Cl)nc3ccccc23)cc1	inactive: 103%
COc1ccc(N2CC(NC(=O)C3CCCC3)CC2=O)cc1OC (centres undefined)	inactive: 104%
Nc1nnc(CCC(CCc2nnc(N)s2)(CCc2nnc(N)s2)C(=O)c2ccccc2)s1	inactive: 92%
CC(C)c1ccc(NC(=O)N2CCC(c3nc4ccccc4o3)CC2)cc1	inactive: 66%
COc1ccc(OC2CCN(S(=O)(=O)c3ccc(OC)cc3)CC2)cc1	inactive: 107%
CC1(c2ccccc2)OC(=O)C(C#N)C12CCCCC2 (centres undefined)	inactive: 103%
COc1cc(NC(=O)CN(C)S(=O)(=O)c2ccc3[nH]c4c(c3c2)CCCC4)cc(OC)c1OC	inactive: 84%
c1ccc(OCCSc2nc3ccccc3o2)cc1	inactive: 78%
O=C(Nc1ccccc1)Oc1ccc2sc(=O)oc2c1	inactive: 100%
CN(C)C(=O)/C=C/c1ccc2c(c1)OCO2	inactive: 81%

Structure (SMILES)	survival
CCOC(=O)N1CCc2c(sc(NCc3ccc(OCC)cc3)c2C(=O)Nc2ccc(OC)cc2OC)C1	inactive: 70%
O=C(NC1CCCC1)c1ccc(CSc2nc3ccncc3n2Cc2ccccc2F)cc1	inactive: 67%
O=C1C2=C(Nc3[nH]c(=O)[nH]c(=O)c3C2c2cccs2)c2ccccc21 (centres undefined)	inactive: 88%
CC1=C(C(=O)Nc2cccnc2)C(c2ccc(F)cc2)n2nc(SCc3ccccc3F)nc2N1 (centres undefined)	inactive: 72%
C=Cn1cc[n+](CC(=O)c2ccc(Cl)cc2)c1	inactive: 87%
COC(=O)c1ccc(S(=O)(=O)N2CCC(c3nc4ccccc4s3)CC2)cc1	inactive: 71%
CN1c2cc(Cl)ccc2-c2nc(SCC(=O)Nc3ccc(F)cc3F)ncc2S1(=O)=O	inactive: 71%
CCOC(=O)C1C(=O)C(C(=O)OCC)C(c2cccnc2)NC1c1cccnc1 (centres undefined)	inactive: 93%
CCc1ccc(CNC(=O)C(CC)n2ccc3cc(S(=O)(=O)N4CCCCC4)ccc32)cc1 (centres undefined)	inactive: 102%
CC(=O)Nc1ccccc1C(=O)NCc1ccco1	inactive: 100%
COc1ccc(CNS(=O)(=O)c2cc(C(=O)Nc3cc(Cl)cc(Cl)c3)ccc2F)cc1	inactive: 86%
COc1ccccc1C(=O)NCc1ccc2c(c1)CCN2C(=O)c1ccncc1	inactive: 87%
CCOC(=O)C1CCCN(C(=O)C2CCN(c3nnc(C)c4c(C)n(-c5ccccc5)nc34)CC2)C1 (centres undefined)	inactive: 129%
CC1=NN(c2ccccc2)C(c2ccccc2)C1 (centres undefined)	inactive: 101%
C=C(C)CSc1nc(C)cc(C)c1C#N	inactive: 61%
Cc1cc(NC(=O)CSc2nc3c([nH]c4ccccc43)c(=O)n2-c2cccc(Cl)c2)no1	inactive: 73%
Clc1ccc(-c2noc3ncnc(NCCCN4CCN(c5ccccc5)CC4)c23)cc1	inactive: 87%
Cc1ccc(C)c(N(CC(=O)Nc2ccccc2)S(C)(=O)=O)c1	inactive: 71%
CCOc1ccccc1NC(=O)C(Cc1ccccc1)NS(=O)(=O)c1ccc(Br)s1 (centres undefined)	inactive: 133%
CCc1ccc(S(=O)(=O)c2nnn3c2nc(NCc2cccs2)c2sccc23)cc1	inactive: 56%

Source: PubChem BioAssay AID463173 (ICCB-Longwood Screening Facility, Harvard Medical School, 2010)
